# Residue numbers refer to the chain shown, from its start. This is one part of the list.
# T1: RBFOX1 RRM (Homo sapiens, UniProt Q9NWB1 109-208)
# T1 sequence: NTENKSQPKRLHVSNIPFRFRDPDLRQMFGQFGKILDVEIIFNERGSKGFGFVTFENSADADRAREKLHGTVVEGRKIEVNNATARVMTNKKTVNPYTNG
# B1: UUAAUGG (DNA:RNA)
# RNA: GGGAGACCGGAAUUCAGAUUGUCCUUAAUGGUUAAAUCCCGUCGUAGCCACCA
# DNA 1: CAATCTGAATTCCGGTCTCCC
# DNA 2: TGGTGGCTACGACGGGATT
# B2: AUGAUGC (DNA:RNA)
# RNA: B1 RNA with U25A, A27G, G31C
# DNA 1: CAATCTGAATTCCGGTCTCCC
# DNA 2: TGGTGGCTACGACGGGATT
# B3: GAGCCGU (DNA:RNA)
# RNA: B1 RNA with U25G, U26A, A27G, A28C, U29C, G31U
# DNA 1: CAATCTGAATTCCGGTCTCCC
# DNA 2: TGGTGGCTACGACGGGATT
# B4: AACCUUC (DNA:RNA)
# RNA: B1 RNA with U25A, U26A, A27C, A28C, G30U, G31C
# DNA 1: CAATCTGAATTCCGGTCTCCC
# DNA 2: TGGTGGCTACGACGGGATT
# B5: UUUCCGC (DNA:RNA)
# RNA: B1 RNA with A27U, A28C, U29C, G31C
# DNA 1: CAATCTGAATTCCGGTCTCCC
# DNA 2: TGGTGGCTACGACGGGATT
# B6: CUCCAUC (DNA:RNA)
# RNA: B1 RNA with U25C, A27C, A28C, U29A, G30U, G31C
# DNA 1: CAATCTGAATTCCGGTCTCCC
# DNA 2: TGGTGGCTACGACGGGATT
# B7: UUCAUGG (DNA:RNA)
# RNA: B1 RNA with A27C
# DNA 1: CAATCTGAATTCCGGTCTCCC
# DNA 2: TGGTGGCTACGACGGGATT
# B8: UGGCGGC (DNA:RNA)
# RNA: B1 RNA with U26G, A27G, A28C, U29G, G31C
# DNA 1: CAATCTGAATTCCGGTCTCCC
# DNA 2: TGGTGGCTACGACGGGATT
# B9: UCAUCAG (DNA:RNA)
# RNA: B1 RNA with U26C, A28U, U29C, G30A
# DNA 1: CAATCTGAATTCCGGTCTCCC
# DNA 2: TGGTGGCTACGACGGGATT
# B10: ACUCGAG (DNA:RNA)
# RNA: B1 RNA with U25A, U26C, A27U, A28C, U29G, G30A
# DNA 1: CAATCTGAATTCCGGTCTCCC
# DNA 2: TGGTGGCTACGACGGGATT
# B11: AAGGUGA (DNA:RNA)
# RNA: B1 RNA with U25A, U26A, A27G, A28G, G31A
# DNA 1: CAATCTGAATTCCGGTCTCCC
# DNA 2: TGGTGGCTACGACGGGATT
# B12: CCAUACU (DNA:RNA)
# RNA: B1 RNA with U25C, U26C, A28U, U29A, G30C, G31U
# DNA 1: CAATCTGAATTCCGGTCTCCC
# DNA 2: TGGTGGCTACGACGGGATT
# B13: GCCCCAA (DNA:RNA)
# RNA: GGGAGACCGGAAUUCAGAUUGUCCGCCCCAAUUAAAUCCCGUCGUAGCCACCA
# DNA 1: CAATCTGAATTCCGGTCTCCC
# DNA 2: TGGTGGCTACGACGGGATT
# B14: CGCCCCA (DNA:RNA)
# RNA: B13 RNA with G25C, C26G, A30C
# DNA 1: CAATCTGAATTCCGGTCTCCC
# DNA 2: TGGTGGCTACGACGGGATT
# B15: CGCUUGA (DNA:RNA)
# RNA: B13 RNA with G25C, C26G, C28U, C29U, A30G
# DNA 1: CAATCTGAATTCCGGTCTCCC
# DNA 2: TGGTGGCTACGACGGGATT
# B16: UUAACAC (DNA:RNA)
# RNA: B1 RNA with U29C, G30A, G31C
# DNA 1: CAATCTGAATTCCGGTCTCCC
# DNA 2: TGGTGGCTACGACGGGATT
# B17: CAUACUU (DNA:RNA)
# RNA: B13 RNA with G25C, C26A, C27U, C28A, A30U, A31U
# DNA 1: CAATCTGAATTCCGGTCTCCC
# DNA 2: TGGTGGCTACGACGGGATT
# B18: UAGUAGA (DNA:RNA)
# RNA: B1 RNA with U26A, A27G, A28U, U29A, G31A
# DNA 1: CAATCTGAATTCCGGTCTCCC
# DNA 2: TGGTGGCTACGACGGGATT
# B19: AGUCCUU (DNA:RNA)
# RNA: B13 RNA with G25A, C26G, C27U, A30U, A31U
# DNA 1: CAATCTGAATTCCGGTCTCCC
# DNA 2: TGGTGGCTACGACGGGATT
# B20: CGGGGUA (DNA:RNA)
# RNA: B13 RNA with G25C, C26G, C27G, C28G, C29G, A30U
# DNA 1: CAATCTGAATTCCGGTCTCCC
# DNA 2: TGGTGGCTACGACGGGATT
# B21: GAACCCG (DNA:RNA)
# RNA: B13 RNA with C26A, C27A, A30C, A31G
# DNA 1: CAATCTGAATTCCGGTCTCCC
# DNA 2: TGGTGGCTACGACGGGATT
# B22: ACGCGCU (DNA:RNA)
# RNA: B13 RNA with G25A, C27G, C29G, A30C, A31U
# DNA 1: CAATCTGAATTCCGGTCTCCC
# DNA 2: TGGTGGCTACGACGGGATT
# B23: GUACCCC (DNA:RNA)
# RNA: B13 RNA with C26U, C27A, A30C, A31C
# DNA 1: CAATCTGAATTCCGGTCTCCC
# DNA 2: TGGTGGCTACGACGGGATT
# B24: UCGACGG (DNA:RNA)
# RNA: B1 RNA with U26C, A27G, U29C
# DNA 1: CAATCTGAATTCCGGTCTCCC
# DNA 2: TGGTGGCTACGACGGGATT
# B25: UGAACUA (DNA:RNA)
# RNA: B1 RNA with U26G, U29C, G30U, G31A
# DNA 1: CAATCTGAATTCCGGTCTCCC
# DNA 2: TGGTGGCTACGACGGGATT
# B26: ACGGCUA (DNA:RNA)
# RNA: B13 RNA with G25A, C27G, C28G, A30U
# DNA 1: CAATCTGAATTCCGGTCTCCC
# DNA 2: TGGTGGCTACGACGGGATT
# B27: AAGCCGG (DNA:RNA)
# RNA: B13 RNA with G25A, C26A, C27G, A30G, A31G
# DNA 1: CAATCTGAATTCCGGTCTCCC
# DNA 2: TGGTGGCTACGACGGGATT
# B28: GAUCGCG (DNA:RNA)
# RNA: B13 RNA with C26A, C27U, C29G, A30C, A31G
# DNA 1: CAATCTGAATTCCGGTCTCCC
# DNA 2: TGGTGGCTACGACGGGATT
# B29: CACGAGC (DNA:RNA)
# RNA: B13 RNA with G25C, C26A, C28G, C29A, A30G, A31C
# DNA 1: CAATCTGAATTCCGGTCTCCC
# DNA 2: TGGTGGCTACGACGGGATT
# B30: UGAGUAC (DNA:RNA)
# RNA: B1 RNA with U26G, A28G, G30A, G31C
# DNA 1: CAATCTGAATTCCGGTCTCCC
# DNA 2: TGGTGGCTACGACGGGATT
# B31: CGGCCGA (DNA:RNA)
# RNA: B13 RNA with G25C, C26G, C27G, A30G
# DNA 1: CAATCTGAATTCCGGTCTCCC
# DNA 2: TGGTGGCTACGACGGGATT
# Molecular target: T1, RBFOX1 RRM
# Experiment: EMSA; HiTS-Eq, 1 nM pool, 10 min; buffer printed only for the single-RNA assays: 10 mM Tris pH 7.5, 150 mM NaCl, 3.4 mM EDTA, 0.001% NP-40, 30 C
# Settings: tags: His6 N-terminal (pET28a); label: 5' 32P
# In short: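 Relative association constants, normalised to the cognate motif, were derived by comparing read counts of each RNA species with those of the control reaction. The RNA sequenced was the free fraction, separated by 8% native PAGE after a 10 min equilibration in 50 µL of 1 nM 5′-radiolabelled RNA (7 randomized nucleotides) with increasing concentrations of purified wild-type or mutant RbFox RRM.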
row,Binder,binding signal
1,B1,0.00567 KA relative to UGCAUGU
2,B2,0.0159 KA relative to UGCAUGU
3,B3,0.00892 KA relative to UGCAUGU
4,B4,0.00492 KA relative to UGCAUGU
5,B5,0.00981 KA relative to UGCAUGU
6,B6,0.00555 KA relative to UGCAUGU
7,B7,0.00704 KA relative to UGCAUGU
8,B8,0.0155 KA relative to UGCAUGU
9,B9,0.0081 KA relative to UGCAUGU
10,B10,0.00945 KA relative to UGCAUGU
11,B11,0.0108 KA relative to UGCAUGU
12,B12,0.00208 KA relative to UGCAUGU
13,B13,0.00702 KA relative to UGCAUGU
14,B14,0.00447 KA relative to UGCAUGU
15,B15,0.0228 KA relative to UGCAUGU
16,B16,0.0007 KA relative to UGCAUGU

row,Binder,binding signal
1,B17,0.000721 KA relative to UGCAUGU
2,B18,0.0116 KA relative to UGCAUGU
3,B19,0.00422 KA relative to UGCAUGU
4,B20,0.0233 KA relative to UGCAUGU
5,B21,0.00427 KA relative to UGCAUGU
6,B22,0.00889 KA relative to UGCAUGU
7,B23,0.00327 KA relative to UGCAUGU
8,B24,0.0199 KA relative to UGCAUGU
9,B25,0.00779 KA relative to UGCAUGU
10,B26,0.0107 KA relative to UGCAUGU
11,B27,0.00316 KA relative to UGCAUGU
12,B28,0.0133 KA relative to UGCAUGU
13,B29,0.00712 KA relative to UGCAUGU
14,B30,0.0151 KA relative to UGCAUGU
15,B31,0.0175 KA relative to UGCAUGU

# Reference: paper PMC9911399, “Two distinct binding modes provide the RNA-binding protein RbFox with extraordinary sequence specificity”
